# Measured values reported in the supplement of paper PMC8728848.
# Some of the results follow.
# Key:
# Experiment in all cases: glycan array binding signal (z-score within array); higher = stronger binding
# Conditions in all cases: glycan notation: IUPAC condensed, linker removed
# [1] = target: Man(a1-3)[Man(a1-6)]Man(a1-6)[Man(a1-3)]Man(b1-4)GlcNAc(b1-4)GlcNAc
# Method in brief: (§1)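 The Consortium for Functional Glycomics database supplied 3228 glycan arrays, of which those lacking an available protein sequence were dropped. The binding signal, a within-array Z-score, was averaged across arrays of the same protein sequence and across linkers. Negative scores can be read as non-binding.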
# [2] = target: Man(a1-3)[Man(a1-6)]Man(b1-4)GlcNAc(b1-4)GlcNAc
# Method in brief: as §1
# [3] = target: Man(b1-4)GlcNAc
# Method in brief: as §1
# [4] = target: Neu5Ac(a2-3)Gal
# Method in brief: as §1
# [5] = target: Neu5Ac(a2-3)Gal(b1-3)GalNAc
# Method in brief: as §1
# [6] = target: Neu5Ac(a2-3)Gal(b1-3)GalNAc(b1-3)Gal(a1-4)Gal(b1-4)Glc
# Method in brief: as §1
# [7] = target: Neu5Ac(a2-3)Gal(b1-3)GalNAc(b1-4)[Neu5Ac(a2-3)]Gal(b1-4)Glc
# Method in brief: as §1
# [8] = target: Neu5Ac(a2-3)Gal(b1-3)GalNAc6S
# Method in brief: as §1
# [9] = target: Neu5Ac(a2-3)Gal(b1-3)GlcNAc
# Method in brief: as §1
# [10] = target: Neu5Ac(a2-3)Gal(b1-3)GlcNAc(b1-3)Gal(b1-3)GlcNAc
# Method in brief: as §1
# [11] = target: Neu5Ac(a2-3)Gal(b1-3)GlcNAc(b1-3)Gal(b1-4)GlcNAc
# Method in brief: as §1
# [12] = target: Neu5Ac(a2-3)Gal(b1-3)GlcNAc6S
# Method in brief: as §1
# [13] = target: Neu5Ac(a2-3)Gal(b1-3)[Fuc(a1-4)]GlcNAc
# Method in brief: as §1
# [14] = target: Neu5Ac(a2-3)Gal(b1-3)[Fuc(a1-4)]GlcNAc(b1-3)Gal(b1-4)[Fuc(a1-3)]GlcNAc
# Method in brief: as §1
# [15] = target: Neu5Ac(a2-3)Gal(b1-3)[Neu5Ac(a2-3)Gal(b1-4)]GlcNAc
# Method in brief: as §1
# [16] = target: Neu5Ac(a2-3)Gal(b1-3)[Neu5Ac(a2-6)]GalNAc
# Method in brief: as §1
# [17] = target: Neu5Ac(a2-3)Gal(b1-4)Glc
# Method in brief: as §1
# [18] = target: Neu5Ac(a2-3)Gal(b1-4)GlcNAc
# Method in brief: as §1
# [19] = target: Neu5Ac(a2-3)Gal(b1-4)GlcNAc(b1-3)Gal(b1-3)GlcNAc
# Method in brief: as §1
# [20] = target: Neu5Ac(a2-3)Gal(b1-4)GlcNAc(b1-3)Gal(b1-4)GlcNAc
# Method in brief: as §1
# [21] = target: Neu5Ac(a2-3)Gal(b1-4)GlcNAc(b1-3)Gal(b1-4)GlcNAc(b1-3)Gal(b1-4)GlcNAc
# Method in brief: as §1
# [22] = target: Neu5Ac(a2-3)Gal(b1-4)GlcNAc(b1-3)Gal(b1-4)[Fuc(a1-3)]GlcNAc
# Method in brief: as §1
# [23] = target: Neu5Ac(a2-3)Gal(b1-4)GlcNAc(b1-6)[Gal(b1-3)]GalNAc
# Method in brief: as §1
# [24] = target: Neu5Ac(a2-3)Gal(b1-4)GlcNAc6S
# Method in brief: as §1
# [25] = target: Neu5Ac(a2-3)Gal(b1-4)[Fuc(a1-3)]GlcNAc
# Method in brief: as §1
# [26] = target: Neu5Ac(a2-3)Gal(b1-4)[Fuc(a1-3)]GlcNAc(b1-3)Gal
# Method in brief: as §1
# [27] = target: Neu5Ac(a2-3)Gal(b1-4)[Fuc(a1-3)]GlcNAc(b1-3)Gal(b1-4)GlcNAc
# Method in brief: as §1
# [28] = target: Neu5Ac(a2-3)Gal(b1-4)[Fuc(a1-3)]GlcNAc(b1-3)Gal(b1-4)[Fuc(a1-3)]GlcNAc(b1-3)Gal(b1-4)[Fuc(a1-3)]GlcNAc
# Method in brief: as §1
# [29] = target: Neu5Ac(a2-3)Gal(b1-4)[Fuc(a1-3)]GlcNAc6S
# Method in brief: as §1
# [30] = target: Neu5Ac(a2-3)Gal6S(b1-4)GlcNAc
# Method in brief: as §1
# [31] = target: Neu5Ac(a2-3)Gal6S(b1-4)[Fuc(a1-3)]GlcNAc
# Method in brief: as §1
# [32] = target: Neu5Ac(a2-3)GalNAc
# Method in brief: as §1
# [33] = target: Neu5Ac(a2-3)GalNAc(b1-4)GlcNAc
# Method in brief: as §1
# [34] = target: Neu5Ac(a2-3)[GalNAc(b1-4)]Gal(b1-4)Glc
# Method in brief: as §1
# [35] = target: Neu5Ac(a2-3)[GalNAc(b1-4)]Gal(b1-4)GlcNAc
# Method in brief: as §1
# [36] = target: Neu5Ac(a2-3)[Neu5Ac(a2-6)]GalNAc
# Method in brief: as §1
# [37] = target: Neu5Ac(a2-6)Gal(b1-4)GlcNAc
# Method in brief: as §1
# [38] = target: Neu5Ac(a2-6)Gal(b1-4)GlcNAc(b1-2)Man(a1-3)[Neu5Ac(a2-6)Gal(b1-4)GlcNAc(b1-2)Man(a1-6)]Man(b1-4)GlcNAc(b1-4)GlcNAc
# Method in brief: as §1
# [39] = target: Neu5Ac(a2-6)Gal(b1-4)GlcNAc(b1-3)Gal(b1-4)GlcNAc
# Method in brief: as §1
# [40] = target: Neu5Ac(a2-6)Gal(b1-4)GlcNAc(b1-3)Gal(b1-4)[Fuc(a1-3)]GlcNAc(b1-3)Gal(b1-4)[Fuc(a1-3)]GlcNAc
# Method in brief: as §1
# [41] = target: Neu5Ac(a2-6)Gal(b1-4)GlcNAc6S
# Method in brief: as §1
# [42] = target: Neu5Ac(a2-6)GalNAc
# Method in brief: as §1
# [43] = target: Neu5Ac(a2-6)GalNAc(b1-4)GlcNAc
# Method in brief: as §1
# [44] = target: Neu5Ac(a2-8)Neu5Ac
# Method in brief: as §1
# [45] = target: Neu5Ac(a2-8)Neu5Ac(a2-3)Gal(b1-4)Glc
# Method in brief: as §1
# [46] = target: Neu5Ac(a2-8)Neu5Ac(a2-3)[GalNAc(b1-4)]Gal(b1-4)Glc
# Method in brief: as §1
# [47] = target: Neu5Ac(a2-8)Neu5Ac(a2-8)Neu5Ac
# Method in brief: as §1
# [48] = target: Neu5Ac(a2-8)Neu5Ac(a2-8)Neu5Ac(a2-3)Gal(b1-4)Glc
# Method in brief: as §1
# [49] = target: Neu5Ac(a2-8)Neu5Ac(a2-8)Neu5Ac(a2-3)[GalNAc(b1-4)]Gal(b1-4)Glc
# Method in brief: as §1
# [50] = target: Neu5Ac(a2-8)Neu5Ac(a2-8)Neu5Ac(a2-8)Neu5Ac(a2-3)[GalNAc(b1-4)]Gal(b1-4)Glc
# Method in brief: as §1
# [51] = target: Neu5Ac9Ac(a2-6)Gal(b1-4)GlcNAc
# Method in brief: as §1
# [52] = target: Neu5Gc(a2-3)Gal(b1-3)GlcNAc
# Method in brief: as §1
# [53] = target: Neu5Gc(a2-3)Gal(b1-3)[Fuc(a1-4)]GlcNAc
# Method in brief: as §1
# [54] = target: Neu5Gc(a2-3)Gal(b1-4)Glc
# Method in brief: as §1
# [55] = target: Neu5Gc(a2-3)Gal(b1-4)GlcNAc
# Method in brief: as §1
# [56] = target: Neu5Gc(a2-3)Gal(b1-4)[Fuc(a1-4)]GlcNAc
# Method in brief: as §1
# [57] = target: Neu5Gc(a2-6)Gal(b1-4)GlcNAc
# Method in brief: as §1
# [58] = target: Neu5Gc(a2-6)GalNAc
# Method in brief: as §1
binder,measurement,setting,value
"Epa1 (Candida glabrata), Q6FUW5_CANGA (protein) MILNPALFLNKCVCIYTTLILLLLTNGGYATSSNDISLASKDPTTFPLGCSPDITTPKKGLSMELYSYDFRKKGSYPCWDAAYLDPNYPRTGYKSHRLLAKVDGVTGNINFYYHATKGCTPQLGHLPASYNYPKPLTMTNFTMLLYGYFRPKVTGFHTFTISADDLLFVNFGAGNAFDCCRRDSSADHFGNYQAYAIWGSKTAKDELTVHLDAGVYYPIRLFYNNREYDGALSFTFKTESNENTVSDFSEYFFSLDDTEEGCPGLISYDSSCASVKTSKIIGIDYHTETPNENLVPITKTIYHLGIPCTGTTTTPLCGSGFYDPLANKCVTINTSSTSSVTKTTSHTTSKEVSFHSSISSQKTLIPKSIPSPYGPIKSQSIPTEMETSSEISSSEYAFSDVISTPSHSPYTKKHSSLNSSSYTSTVIHSLTSYSISQGIFSTSLSEQNITSKSSTDKFSTATSMSNSITQSSIIISQSSTNNENYTTTSMHTSSDKISTETLNNSISTTTSILFSNSSTILKNNTTIISSDKDTHYHPVNPTIVCSTNKTEIICASITQPSISNSNNHWSSSVLRFNSTTVRSTLPSSAGSNETSINVPFSSSTESNASTSSTSTSNSKTVRSTLPSSAGSNETSINVPFSSSTESNTSTSSTSTSNSKTVRSTLPSSAGSNETSINVPFSSSTESNASTSSTSTSNSKTVRSTPFSSAGIIMTSLSQRNNKSASSYASSNSKCYNTADSCRKVHSTPSYLLTSSYTSEGVDYDCSLVSTKLKINDTNCLNNKHTTKSCLKTSVTTTIPTLEIKTARKSSSNTIGLHSYPTSSPNKSISSAPIIGYISSFKTIKTASPSYQTSDLTTITTITSLNNPGSTAVENTHESNDKSRKTSSNDISSKHSVIKETKDAVESSNKSHQTNTLKCSSIIIASSSHNSYESLGGTTLTLTLSKVYSPQNNDTLPFLEISEVNPSRTVLPESSKMMQYLTSTEERNKTARNTIATNIVSISTFHFEGEGNAIRMGYTQLLLMLIGIIVMNIGT",glycan array binding signal (z-score),[1],-0.551
same,glycan array binding signal (z-score),[2],-0.554
same,glycan array binding signal (z-score),[3],-0.555
same,glycan array binding signal (z-score),[4],-0.552
same,glycan array binding signal (z-score),[5],-0.547
same,glycan array binding signal (z-score),[6],-0.295
same,glycan array binding signal (z-score),[7],-0.552
same,glycan array binding signal (z-score),[8],-0.549
same,glycan array binding signal (z-score),[9],-0.553
same,glycan array binding signal (z-score),[10],-0.546
same,glycan array binding signal (z-score),[11],-0.553
same,glycan array binding signal (z-score),[12],-0.548
same,glycan array binding signal (z-score),[13],-0.552
same,glycan array binding signal (z-score),[14],-0.545
same,glycan array binding signal (z-score),[15],-0.55
same,glycan array binding signal (z-score),[16],-0.553
same,glycan array binding signal (z-score),[17],-0.555
same,glycan array binding signal (z-score),[18],-0.556
same,glycan array binding signal (z-score),[19],-0.557
same,glycan array binding signal (z-score),[20],-0.554
same,glycan array binding signal (z-score),[21],-0.544
same,glycan array binding signal (z-score),[22],-0.553
same,glycan array binding signal (z-score),[23],1.96
same,glycan array binding signal (z-score),[24],-0.553
same,glycan array binding signal (z-score),[25],-0.553
same,glycan array binding signal (z-score),[26],-0.547
same,glycan array binding signal (z-score),[27],-0.539
same,glycan array binding signal (z-score),[28],-0.552
same,glycan array binding signal (z-score),[29],-0.545
same,glycan array binding signal (z-score),[30],-0.557
same,glycan array binding signal (z-score),[31],-0.509
same,glycan array binding signal (z-score),[32],-0.554
same,glycan array binding signal (z-score),[33],-0.551
same,glycan array binding signal (z-score),[34],-0.553
same,glycan array binding signal (z-score),[35],-0.553
same,glycan array binding signal (z-score),[36],-0.548
same,glycan array binding signal (z-score),[37],-0.55
same,glycan array binding signal (z-score),[38],-0.531
same,glycan array binding signal (z-score),[39],-0.554
same,glycan array binding signal (z-score),[40],-0.542
same,glycan array binding signal (z-score),[41],-0.553
same,glycan array binding signal (z-score),[42],-0.551
same,glycan array binding signal (z-score),[43],-0.557
same,glycan array binding signal (z-score),[44],-0.554
same,glycan array binding signal (z-score),[45],-0.552
same,glycan array binding signal (z-score),[46],-0.554
same,glycan array binding signal (z-score),[47],-0.554
same,glycan array binding signal (z-score),[48],-0.554
same,glycan array binding signal (z-score),[49],-0.55
same,glycan array binding signal (z-score),[50],-0.55
same,glycan array binding signal (z-score),[51],-0.558
same,glycan array binding signal (z-score),[52],-0.551
same,glycan array binding signal (z-score),[53],-0.548
same,glycan array binding signal (z-score),[54],-0.55
same,glycan array binding signal (z-score),[55],-0.549
same,glycan array binding signal (z-score),[56],-0.553
same,glycan array binding signal (z-score),[57],-0.556
same,glycan array binding signal (z-score),[58],-0.556
